# Reference: ChEMBL document CHEMBL4888484, “Replenishing the malaria drug discovery pipeline: Screening and hit evaluation of the MMV Hit Generation Library 1 (HGL1) against asexual blood stage Plasmodium falciparum ,using a nano luciferase reporter read-out” (2022)
# Several values for one entry are separate records, joined by “and”; a condition that tells them apart may be missing. Equal values may be shown once. The campaign covered roughly 150,000 compounds. About 540 (0.36%) showed an effect of 50% or more. Some of the results follow.
# System: Plasmodium falciparum
# Assay: Primary screen in NF54 nanoGlo assay, in single point, at 2uM, 72h; a lower Z score goes with more inhibition
# Assay type: functional, Erythrocyte
# Details: timepoint 72 hour
SMILES,% Inhibition,Z score,% Inhibition (2 µM)
O=C(Nc1cncc2ccccc12)c1ncccn1,-22%,2.51,–
O=S(=O)(c1ccc2c(c1)CCC2)N1CCC(OCc2noc([C@@H]3CCCO3)n2)CC1,2%,-0.27,–
C[C@@H](O)[C@@H](CO)NC(=O)Cc1nn(C)c2ccccc12,-10%,1.92,–
O=C(c1cccc2cc[nH]c12)N1CC[C@@H](CO)[C@@H](O)C1,-6%,0.84,–
CN1CCC(NC(=O)c2n[nH]c3c2CN(C(=O)c2ccccc2F)CC3)CC1,-2%,0.25,–
CC(C)C[C@H](O)CNC(=O)c1ccncc1,-4%,0.63,–
Cc1ccccc1-c1nc2nc(C)c(CC(=O)N3CCN(c4ccc(F)cc4)CC3)c(C)n2n1,2%,-0.28,–
Cc1ccc(CNC(=O)c2cnc3c(-c4cccc(C)c4)c(C)nn3c2C(F)(F)F)cc1,-11%,1.23,–
CN(CC(=O)Oc1ccc(N2CCCC2=O)cc1)c1ccccc1,6%,-0.72,–
CC1CCCC(NC(=O)NC(=O)CN2CCC(=O)Nc3cc(F)ccc32)C1C (configuration not stated),-16%,1.81,–
COc1ccc([C@H]2C[C@H](NCc3cnc(C4CC4)o3)C2)cc1F,2%,-0.35,–
Cc1c(-c2cc(-c3cnn(C)c3C)n(S(=O)(=O)c3cnn(C)c3)n2)cnn1C,34%,-3.83,–
O=C(Cc1ccccc1)NCCCNC(=O)Cc1ccccc1,1%,-0.09,–
Cc1nc(NC(=O)c2n[nH]c3c2CCC3)n(C)n1,7%,-1.19,–
CCOC(=O)[C@H]1CN(C(=O)OC(C)(C)C)CC[C@@H]1F,-9%,1.47,–
O=C(Cc1csc(-c2ccccc2)n1)N1CCCC[C@@H]1CCn1ccnc1,-12%,1.58,–
CC[C@@H](O)CN1CCCCC1CCOC(C)C (some centres not stated),-9%,1.3,–
Cc1cccc(N2CCN(C(=O)Cn3cnc4onc(C)c4c3=O)CC2)c1C,-9%,1.6,–
C[C@H]1CN(C(=O)CN2CCCC2)CCO1,-11%,1.18,–
Cc1cc(=O)[nH]c2c1cnn2[C@@H](C)C1CC1,1%,-0.15,–
COc1ccc(C(=O)C[C@H](Nc2ccc3ccccc3c2)c2cccnc2)cc1,-5%,0.73,–

SMILES,% Inhibition,Z score,% Inhibition (2 µM)
C[C@H](NC(=O)CN1CCN(S(=O)(=O)c2ccccc2)CC1)c1cccs1,-7%,0.75,–
O=C(COc1cccc(Cl)c1)N1C[C@H]2CC[C@@H](C1)N(CC1CC1)C2=O,-1%,0.19,–
COC(=O)C(C)(C)NS(=O)(=O)c1c(C)noc1C,-16%,2.96,–
NCCCCc1nc(-c2ccccn2)cs1,-4%,0.51,–
Cc1cnn(CC(=O)N2CCN3CCOc4cccc2c43)c1,3%,-0.35,–
COc1cc2c(cc1OC)[C@@H](c1c(F)cccc1Cl)N(C(=O)c1ccccc1C(F)(F)F)CC2,-19%,1.66,–
O=C([C@H]1CC1(F)F)N1CCCc2n[nH]cc21,-11%,2.2,–
CCCCNC(=O)c1c(CO)cc(C)[nH]c1=O,0%,-0.02,–
Cc1nscc1C(=O)N[C@H](C#N)c1cnn(-c2ccccc2)c1,-2%,0.32,–
CCn1ccnc1CN1CCN(C(=O)c2ccc3c(c2)ncn3C)CC1,-7%,1.42,–
CCCCc1nc(C)c(C(=O)NC2(C(=O)O)CCCCC2)s1,-11%,1.87,–
CC(=O)N1CCC(CN2CCn3cc(C(=O)NCc4ccccc4)nc3[C@H]2c2ccccc2)CC1,-9%,1.35,–
Cc1cc(CS(=O)(=O)[C@@H](C)C(=O)NCc2ccccc2)on1,-12%,2.41,–
CC(C)c1cncnc1N1CCO[C@H](c2ccc(Cl)cc2)C1,0%,0.01,–
CONC(=O)N[C@@H](C)c1csc(C2CC2)n1,-4%,0.49,–
Cc1ccc(C(=O)N2CCC(N3CCCCC3)CC2)c(C2CCN(C(=O)c3ccc(F)cc3F)CC2)n1,-2%,0.26,–
CCOC(=O)C1=C(C)N(C2CCCCC2)C(=O)[C@]1(NC(=O)c1ccc(Cl)cc1Cl)C(F)(F)F,-15%,1.91,–
O=C1[C@@H]2C[C@H](O)CCN2C(=O)CN1C1Cc2ccccc2C1,-8%,1.57,–
CC(=O)Nc1cccc2c(C(=O)N3CCCC3)ccnc12,-3%,0.57,–
CCOC=CC(O)(CNC(=O)N[C@@H]1COC[C@@H]1OC)C(F)(F)F (some centres not stated),-13%,1.67,–
CC(C)c1cncnc1N1C[C@@H]2OC(=O)N(CCCN3CCOCC3)[C@@H]2C1,-14%,1.99,–

SMILES,% Inhibition,Z score,% Inhibition (2 µM)
COc1cc(CNC2CCCC2)cc(Cl)c1OCc1ccccc1Cl,–,–,3% and -11%
CCn1nnc(C)c1C(=O)NCCn1cnnc1C(C)C,12%,-1.51,–
CNc1ncc(C(=O)NC[C@@H](c2ccc(F)cc2)N2CCCC2)cn1,-12%,2.37,–
COCCNC(=O)c1csc(C(C)C)c1,-14%,1.99,–
C[C@H]1CN(CC(=O)Nc2ccccn2)Cc2c[nH]nc21,4%,-0.45,–
O=C(CN1CC(c2nc3ccccc3[nH]2)C1)NC[C@H]1CCCO1,-8%,0.77,–
CN(c1ncc(Cl)cn1)C1CC[S+]([O-])CC1 (configuration not stated),0%,-0.06,–
C=CCCC(=O)[C@@H]1CCCN1S(=O)(=O)c1c(C)nn(C)c1C,-10%,1.8,–
CCOc1ccc(CNC(=O)c2cc(C3CC3)n(C)n2)cc1,-10%,1.99,–
Cc1noc(C)c1CCC(=O)NC1CCN(c2cnccn2)CC1,3%,-0.45,–
COCc1cn(C[C@H]2C[C@@H](NC(=O)Nc3ccc4c(c3)OCCO4)[C@H](O)[C@@H]2O)nn1,15%,-1.75,–
Cc1ccc(C)c(CNC(=O)[C@H]2CCCN(c3nnc4ccccn34)C2)c1,-6%,1.22,–
COCCN(Cc1cccnc1)C(=O)c1ccccc1-c1nnn[nH]1,-10%,1.01,–
CN[C@@H](C(=O)Nc1nc(C2CC2)c(Cc2ccccc2F)s1)c1cnn(C)c1,-8%,1,–
Cc1cc(NC(=O)C(=O)NC[C@H](O)c2ccc(C)o2)no1,-15%,2.52,–
CC(Cc1ccncc1)NC(=O)N1CCN2C(=O)NCC2C1 (configuration not stated),-5%,0.74,–
CCC[C@]1(C(=O)O)CCCN(C(=O)CCCc2cn[nH]c2)C1,-6%,0.86,–
CCc1ccc(-c2n[nH]c3c2cnc2ccc(OC)cc23)cc1,32%,-0.66,–
CCOC(=O)N1CCN(Cn2c(=S)sc3ccccc32)CC1,-11%,1.54,–
Clc1ccc(-c2nccn2[C@H]2CCCOC2)c(Cl)c1,-2%,0.22,–
CCCC(=O)Nc1ccc(N2CCN(CC(=O)N(CC)CC)CC2)cc1C(=O)O,38%,-5.53,–

SMILES,% Inhibition,Z score,% Inhibition (2 µM)
C[N+]1(CCCC(=O)c2ccc3c(c2)OCCO3)CCC(c2ccccc2)C1 (configuration not stated),73%,-8.3,–
CCCCc1nc(CN(CC#N)C2CC2)cs1,-9%,1.75,–
COc1cc(OC)nc(C(=O)N2CCCc3ccnc(N(C)C)c32)n1,-9%,1.61,–
Cn1cccc1-c1cc2n(n1)CCC(=O)N2CCCC(=O)NCCc1ccc(Cl)cc1,-7%,1.27,–
O=S(=O)(Nc1nc2ccccc2nc1NC1CCN(Cc2ccccc2)CC1)c1cccs1,-40%,4.7,–
CCCN(C)C(=O)c1cc(-c2ccccc2)cn1CC,6%,-0.87,–
CC1CN(C(=O)c2cn(Cc3ccccc3)nc2-c2ccccc2)CC(C)O1 (configuration not stated),-1%,0.14,–
CCc1ncncc1-c1nc([C@@H]2CCCN2C(=O)OC(C)(C)C)no1,-22%,2.91,–
CC(=O)N[C@H]1CCN(Cc2cc(Cl)c(OC(C)C)c(Cl)c2)C1,-8%,1.49,–
Nc1cncc(CCCCOCc2ccccc2)c1,-16%,1.6,–
Cc1c(CNC2CCC(C)CC2)c(C(=O)O)c(C)n1Cc1cccc(Cl)c1 (configuration not stated),-5%,0.89,–
CN(C)c1noc(-c2coc(C3CCC3)n2)n1,4%,-0.69,–
O=C([C@H]1CCc2cncn2C1)N(Cc1ccccc1F)C1CCC1,6%,-0.65,–
O=C(NCCc1ccccn1)c1cn2c(n1)CC[C@H](c1cc(C(F)(F)F)cc(C(F)(F)F)c1)C2,3%,-0.47,–
O=C(NCCCOCC1CCOC1)N1CCCC2CCCC21 (configuration not stated),-4%,0.48,–
CCC(CC)C(=O)N1CC[C@@](C)(O)[C@@H](NC(=O)c2ccccc2)[C@@H]1c1cccs1,3%,-0.46,–
COc1ccc(C(=O)Nc2ccc3c(c2)N(C(=O)c2ccccc2)CCC3)cc1,-4%,0.43,–
CCN1CCN(C2CCN(Cc3c[nH]c4ccccc34)CC2)CC1,5%,-0.83,–
N#CC1CCN(C(=O)Nc2ccc(-n3ncc4ccccc43)cc2)CC1,-1%,0.1,–
CCn1c(CN2CCN(CCOC)C(=O)C2)nc2ccccc21,-8%,1.03,–
Cn1c(CN2CC[C@H](NC(=O)c3cccnc3)[C@@H](O)C2)nc2ccccc21,2%,-0.31,–
